The IC50 comes from the fitted curve, where viability falls to half of the control; a limit (>, <) means that the fit lies beyond the doses tested. The AUC spans the tested range (256-fold, ending at the top dose) of the same fit; the more sensitive the line, the further below 1. For part of these data: An inferred top dose comes from the curve model; the source does not state it. For part of these data: Drugs with an entry number were screened twice under separate entries, and the two screens often disagree.
Experiments:
Test in all cases: Viability of human cancer cell lines after 72 h of drug (GDSC screen)
OSI-906 = compound: C[C@]1(O)C[C@@H](c2nc(-c3ccc4ccc(-c5ccccc5)nc4c3)c3c(N)nccn32)C1 [OSI-906]; settings: top dose 2.56 µM; top dose inferred
Method: (§1)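 Human cancer cell lines in 384-well plates, medium with 10% serum, drug for 72 h over a 256-fold dose range (nine 2-fold or five 4-fold steps up to the top dose). Adherent lines were fixed and stained with the nucleic acid dye Syto60, suspension lines read with resazurin; signal relative to control wells, capped at 0 and 100%. One two-parameter sigmoid per drug and line, fitted in a mixed model over all curves with the slope shared within a line.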

Docetaxel = compound: CC(=O)O[C@@]12CO[C@@H]1C[C@H](O)[C@@]1(C)C(=O)[C@H](O)C3=C(C)[C@@H](OC(=O)[C@H](O)[C@@H](NC(=O)OC(C)(C)C)c4ccccc4)C[C@@](O)([C@@H](OC(=O)c4ccccc4)[C@H]21)C3(C)C [Docetaxel]; settings: top dose 0.0125 µM
Method: as §1

CGP-60474 = compound: OCCCNc1cc(-c2ccnc(Nc3cccc(Cl)c3)n2)ccn1 [CGP-60474]; settings: top dose 0.256 µM; top dose inferred
Method: as §1

JNK Inhibitor VIII = compound: CCOc1nc(NC(=O)Cc2cc(OC)ccc2OC)cc(N)c1C#N [JNK Inhibitor VIII]; settings: top dose 10 µM; top dose inferred
Method: as §1

NSC-207895 = compound: CN1CCN(c2ccc([N+](=O)[O-])c3no[n+]([O-])c23)CC1 [NSC-207895]; settings: top dose 20 µM; top dose inferred
Method: as §1

AMG-706 = compound: CC1(C)CNc2cc(NC(=O)c3cccnc3NCc3ccncc3)ccc21 [AMG-706]; settings: top dose 2 µM; top dose inferred
Method: as §1

FTI-277 = compound: COC(=O)[C@H](CCSC)NC(=O)c1ccc(NC[C@@H](N)CS)cc1-c1ccccc1 [FTI-277]; settings: top dose 1.024 µM; top dose inferred
Method: as §1

NVP-TAE684 = compound: COc1cc(N2CCC(N3CCN(C)CC3)CC2)ccc1Nc1ncc(Cl)c(Nc2ccccc2S(=O)(=O)C(C)C)n1 [NVP-TAE684]; settings: top dose 2 µM
Method: as §1

SB-715992 = compound: Cc1ccc(C(=O)N(CCCN)[C@@H](c2nc3cc(Cl)ccc3c(=O)n2Cc2ccccc2)C(C)C)cc1 [SB-715992]; settings: top dose 0.128 µM; top dose inferred
Method: as §1

Cyclopamine = compound: CC1=C2C[C@H]3[C@@H](CC=C4C[C@@H](O)CC[C@@]43C)[C@@H]2CC[C@]12O[C@@H]1C[C@H](C)CN[C@H]1[C@H]2C [Cyclopamine]; settings: top dose 16 µM; top dose inferred
Method: as §1

Belinostat = compound: O=C(/C=C/c1cccc(S(=O)(=O)Nc2ccccc2)c1)NO [Belinostat]; settings: top dose 20 µM; top dose inferred
Method: as §1

YM155 = compound: COCC[n+]1c2c(n(Cc3cnccn3)c1C)C(=O)c1ccccc1C2=O [YM155]; settings: top dose 5.12 µM
Method: as §1

JQ1 = compound: Cc1sc2c(c1C)C(c1ccc(Cl)cc1)=N[C@@H](CC(=O)OC(C)(C)C)c1nnc(C)n1-2 [JQ1]
Method: as §1

JNJ-26854165 = compound: c1ccc2c(CCNc3ccc(Nc4ccncc4)cc3)c[nH]c2c1 [JNJ-26854165]; settings: top dose 10 µM
Method: as §1

[1] = top dose 1 µM, screen: GDSC drug entry 1218, top dose inferred
[2] = top dose 2.56 µM, screen: GDSC drug entry 163

Cell Line	AUC (OSI-906)	IC50 (OSI-906) [nM]	AUC (Docetaxel)	IC50 (Docetaxel) [nM]	AUC (CGP-60474)	IC50 (CGP-60474) [nM]	AUC (JNK Inhibitor VIII)	IC50 (JNK Inhibitor VIII) [nM]	AUC (NSC-207895)	IC50 (NSC-207895) [nM]	AUC (AMG-706)	IC50 (AMG-706) [nM]	AUC (FTI-277)	IC50 (FTI-277) [nM]	AUC (NVP-TAE684)	IC50 (NVP-TAE684) [nM]	AUC (SB-715992)	IC50 (SB-715992) [nM]	AUC (Cyclopamine)	IC50 (Cyclopamine) [nM]	AUC (Belinostat)	IC50 (Belinostat) [nM]	AUC (YM155)	IC50 (YM155) [nM]	AUC (JQ1; [1])	IC50 (JQ1; [1]) [nM]	AUC (JQ1; [2])	IC50 (JQ1; [2]) [nM]	AUC (JNJ-26854165)	IC50 (JNJ-26854165) [nM]
ES1 (Ewing sarcoma, adherent)	0.459	124	0.675	2.38	0.851	191	0.955	> 10000	0.919	> 20000	0.961	> 2000	0.986	> 1020	0.85	1490	0.734	36.8	0.958	> 16000	0.283	307	0.031	< 20	0.984	> 1000	0.946	> 2560	0.748	3170
Farage (B-cell lymphoma, suspension)	0.993	> 2560	0.897	10.6	0.606	29.6	0.993	> 10000	0.902	17700	0.993	> 2000	0.988	> 1020	0.96	> 2000	0.624	16.4	0.966	> 16000	0.275	332	0.016	< 20	0.974	> 1000	0.809	1050	0.914	> 10000
SBC-1 (small cell lung carcinoma, suspension)	0.973	> 2560	0.951	> 12.5	0.941	> 256	0.989	> 10000	0.684	4000	0.988	> 2000	0.97	> 1020	0.985	> 2000	0.988	> 128	0.989	> 16000	0.262	270	0.026	< 20	0.751	318	0.913	> 2560	0.83	5950
TK10 (kidney, adherent)	0.925	> 2560	0.799	7.48	0.685	59.1	0.973	> 10000	0.974	> 20000	0.98	> 2000	0.965	> 1020	0.8	1210	0.965	> 128	0.979	> 16000	0.958	> 20000	0.945	> 5120	0.98	> 1000	0.729	836	0.816	7070
REH (B-cell leukaemia, suspension)	0.89	> 2560	0.869	10.8	0.96	> 256	0.987	> 10000	0.853	14700	0.987	> 2000	0.979	> 1020	0.95	> 2000	0.63	18	0.963	> 16000	0.239	228	0.023	< 20	0.916	> 1000	0.782	1030	0.893	> 10000
IST-MEL1 (melanoma, adherent)	0.951	> 2560	0.689	2.95	0.69	60.8	0.973	> 10000	0.789	10800	0.978	> 2000	0.963	> 1020	0.915	> 2000	0.972	> 128	0.971	> 16000	0.406	658	0.035	< 20	0.978	> 1000	0.665	506	0.85	9980
HCC1187 (breast, suspension)	0.958	> 2560	0.59	1.36	0.844	170	0.982	> 10000	0.929	> 20000	0.988	> 2000	0.985	> 1020	0.867	1650	0.543	10.4	0.982	> 16000	0.777	7650	0.064	< 20	0.984	> 1000	0.833	1540	0.921	> 10000
GB-1 (glioma, adherent)	0.768	1130	0.788	6.55	0.591	29.8	0.968	> 10000	0.793	11000	0.982	> 2000	0.976	> 1020	0.642	332	0.866	> 128	0.911	> 16000	0.249	204	0.045	< 20	0.98	> 1000	0.812	1690	0.952	> 10000
NCI-SNU-1 (stomach, suspension)	0.934	> 2560	0.973	> 12.5	0.87	252	0.983	> 10000	0.929	> 20000	0.985	> 2000	0.976	> 1020	0.83	1320	0.856	108	0.985	> 16000	0.409	700	0.217	45.9	0.978	> 1000	0.79	1180	0.974	> 10000
